According to PubChem BioAssay AID492949 (National Center for Advancing Translational Sciences (NCATS), 2010):
Inconclusive results, whose numbers are uncertain, are shown with a selection of clear calls. Potencies of inconclusive entries are doubtful fits and often do not repeat. Active and inactive are the calls of the source. Calls follow the shape of the dose curve; as a rule, active = well fitted activation curve with a large enough effect; inconclusive = small, poorly fitted or top-dose-only effect; inactive = no such curve, though single readings can be large or run the other way.

Target: Relaxin receptor 1 (Homo sapiens) (UniProt Q9HBX9)
UniProt Q9HBX9, sequence (Q9HBX9 whole entry, looked up): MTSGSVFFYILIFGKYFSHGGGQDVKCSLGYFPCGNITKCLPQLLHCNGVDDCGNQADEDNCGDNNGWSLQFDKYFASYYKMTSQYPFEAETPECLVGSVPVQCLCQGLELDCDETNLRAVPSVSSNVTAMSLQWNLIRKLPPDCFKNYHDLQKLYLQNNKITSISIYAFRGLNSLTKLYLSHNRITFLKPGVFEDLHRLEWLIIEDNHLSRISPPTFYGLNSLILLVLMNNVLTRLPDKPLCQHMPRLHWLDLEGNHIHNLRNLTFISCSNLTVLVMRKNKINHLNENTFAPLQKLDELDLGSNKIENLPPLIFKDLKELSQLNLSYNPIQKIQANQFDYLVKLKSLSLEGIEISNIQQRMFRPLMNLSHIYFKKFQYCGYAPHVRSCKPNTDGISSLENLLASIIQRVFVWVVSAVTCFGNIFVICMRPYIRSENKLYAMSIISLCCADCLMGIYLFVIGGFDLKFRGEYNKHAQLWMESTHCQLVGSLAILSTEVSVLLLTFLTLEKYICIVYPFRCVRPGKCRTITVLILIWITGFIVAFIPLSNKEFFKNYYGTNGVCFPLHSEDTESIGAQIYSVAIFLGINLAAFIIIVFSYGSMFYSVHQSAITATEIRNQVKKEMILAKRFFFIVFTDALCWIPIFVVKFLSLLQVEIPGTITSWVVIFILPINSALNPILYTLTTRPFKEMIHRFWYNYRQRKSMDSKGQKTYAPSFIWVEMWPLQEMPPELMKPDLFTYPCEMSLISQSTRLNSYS
Experiment: qHTS Assay for Agonists of the Relaxin Receptor RXFP1: THP1 Hit Validation; also: nearly all actives have a fitted effect of over 60% in size
Conditions: THP1-RXFP1 cells, cAMP TR-FRET, 30 min; series mostly up to 115 µM
Procedure, shortened: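 TR-FRET cAMP readout (signal falls as cAMP rises) in lysed RXFP1-transfected THP1 cells after 30 min compound treatment, 37C, PDE4 inhibitor present. EC50 from Hill equation, 0-100% set by buffer and 29 nM porcine relaxin.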
Potency is read from the fitted curve at half-maximal effect; tags tell the direction and shape of the fitted curve.

Row | SMILES | Potency
1 | CC(NC(=O)CCCc1nnc2n(C)c(=O)c3sccc3n12)c1ccccc1 (stereo not given) | inconclusive: 34.6 µM [activator, partial curve]
2 | Cc1cc(C)n(C(=O)CCCn2cc([N+](=O)[O-])cn2)n1 | inconclusive: 38.9 µM [activator, partial curve]
3 | O=C(Nc1ccc(Cl)cc1)Nc1ccccc1Sc1ncc([N+](=O)[O-])s1 | inconclusive: 0.0014 µM [activator, full curve, poor fit]
4 | O=C(NCCCN1CCCC1=O)c1c(O)nc2ccccn2c1=O | inconclusive: 38.9 µM [activator, partial curve, poor fit]
5 | Cc1cc(C)nc(NS(=O)(=O)c2ccc(NC(=O)c3nn(-c4ccccc4)ccc3=O)cc2)n1 | inconclusive: 7.76 µM [activator, full curve]
6 | CCN(CC)S(=O)(=O)c1ccc(Cl)c(NC(=O)CSc2cccc[n+]2[O-])c1 | inconclusive: 38.9 µM [activator, partial curve]
7 | O=C(O)c1cc(-c2ccc(Br)s2)nc2ccccc12 | active: 3.08 µM
8 | CCCCn1c(SCC(=O)N2CCOCC2)nc2c1c(=O)n(C)c(=O)n2C | inconclusive: 43.6 µM [activator, partial curve]
9 | CC(=O)CCCCn1c(=O)c2c(ncn2C)n(C)c1=O | inconclusive: 38.9 µM [activator, partial curve, poor fit]
10 | CN1CCN(C(=O)CCc2nnc3ccc(N4CCC5(CC4)OCCO5)nn23)CC1 | inconclusive: 87 µM [activator, partial curve, poor fit]
11 | O=C(Nc1ccccc1C(=O)Nc1ccccc1)c1ccco1 | inactive
12 | CN(C)S(=O)(=O)c1ccc(C(=O)OCC(=O)Nc2cccnc2Cl)cc1 | active: 19.4 µM
13 | CCC(Sc1ccc2nnc(-c3cccnc3)n2n1)C(=O)O (stereo not given) | inconclusive: 3.09 µM [activator, full curve]
14 | O=C(Nc1ccccc1C(=O)NC1CCCCC1)c1ccco1 | inactive
15 | O=C(Cn1cnc2c(nnn2-c2ccc(F)cc2)c1=O)NCC1CCCO1 (stereo not given) | active: 8.7 µM
16 | CCc1nn(CC(=O)NCCCN2CCOCC2)c(=O)c2cc3sccc3n12 | inconclusive: 34.6 µM [activator, partial curve]
17 | CCCc1nc(SCC(=O)NCC2CCCO2)c2c(=O)n(C)c(=O)n(C)c2n1 (stereo not given) | inconclusive: 7.76 µM [activator, full curve, poor fit]
18 | CC(C)OCCCn1c(=O)c2ccccc2n2c(CCC(=O)NCc3ccccn3)nnc12 | inconclusive: 48.9 µM [activator, partial curve]
19 | Cc1cc(Br)c2nc3c(c(C(=O)O)c2c1)CCCCC3 | active: 3.08 µM
20 | O=C(NCCOC(=O)c1ccc([N+](=O)[O-])cc1)c1cccnc1 | inconclusive: 38.9 µM [activator, partial curve]
21 | CCN(CC)CCCN1C=C2C(=O)C(C)(OC(=O)C3CCCC3)C(=O)C=C2C=C1c1ccsc1 (stereo not given) | inactive
22 | CC(NC(=O)c1ccccc1NC(=O)c1ccco1)c1ccccc1 (stereo not given) | inconclusive: 52.3 µM [activator, partial curve]
23 | CNc1ccc(/C=C(\C#N)C(=O)Nc2ccccn2)cc1[N+](=O)[O-] | inconclusive: 34.6 µM [activator, partial curve]
24 | N#C/C(=C\c1c(N2CCC(C(N)=O)CC2)nc2ccccn2c1=O)C(=O)NC1CCCCC1 | inconclusive: 69.1 µM [activator, partial curve]
25 | COC(=O)Cn1cnc2c(C#N)c3n(c2c1=O)CCCC3 | active: 24.5 µM
